From PubChem BioAssay AID488969 (Vanderbilt High Throughput Screening Facility, 2010)
Over roughly 110,000 compounds, “z-score” has its median near -0.1; the highest 2% begin near 2. This is one part of the list. Calls of active or inactive are those of the source.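 How the source made its calls: active means z-score in the third read window above 3 or below -3; inactive means the rest.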

Biological target: Metabotropic glutamate receptor 8 (Rattus norvegicus) (UniProt P70579)
Assay: rat mGluR8 modulators via GIRK flux, primary screen, cell-based, thallium flux, HTS (AID 488969)
Details: HEK293 rat mGluR8, GIRK (G protein-gated inwardly rectifying potassium channel) thallium flux, FluoZin2; at 10 µM; stronger effect = higher value; submaximal glutamate (EC20) added with thallium

Chain of UniProt P70579 (P70579 whole entry, looked up): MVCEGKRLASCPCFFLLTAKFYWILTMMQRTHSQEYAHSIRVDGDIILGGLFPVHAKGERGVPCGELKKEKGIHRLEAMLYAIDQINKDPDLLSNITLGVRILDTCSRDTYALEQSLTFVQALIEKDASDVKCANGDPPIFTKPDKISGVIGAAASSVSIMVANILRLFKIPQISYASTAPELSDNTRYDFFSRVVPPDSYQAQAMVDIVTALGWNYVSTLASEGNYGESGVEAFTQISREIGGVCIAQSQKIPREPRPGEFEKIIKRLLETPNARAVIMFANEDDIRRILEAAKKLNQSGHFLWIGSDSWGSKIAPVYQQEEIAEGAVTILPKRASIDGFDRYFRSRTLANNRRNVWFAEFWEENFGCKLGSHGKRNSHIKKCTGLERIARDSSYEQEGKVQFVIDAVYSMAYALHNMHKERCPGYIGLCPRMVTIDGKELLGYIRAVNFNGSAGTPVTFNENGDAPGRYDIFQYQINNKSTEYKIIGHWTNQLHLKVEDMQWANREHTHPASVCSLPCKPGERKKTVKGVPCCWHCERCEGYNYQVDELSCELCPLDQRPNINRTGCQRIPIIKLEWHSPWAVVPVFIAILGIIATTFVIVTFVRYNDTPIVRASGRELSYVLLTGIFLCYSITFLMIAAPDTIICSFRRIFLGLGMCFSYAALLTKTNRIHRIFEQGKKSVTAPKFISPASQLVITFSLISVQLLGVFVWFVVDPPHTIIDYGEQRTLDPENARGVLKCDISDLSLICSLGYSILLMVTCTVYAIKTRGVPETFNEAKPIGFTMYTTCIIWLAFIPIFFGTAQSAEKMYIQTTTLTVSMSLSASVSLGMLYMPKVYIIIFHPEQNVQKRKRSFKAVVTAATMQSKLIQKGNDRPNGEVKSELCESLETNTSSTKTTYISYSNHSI

SMILES | z-score
CC(=O)c1c(C)[nH]c(C(=O)NCc2cccs2)c1C | 0.148
COc1ccccc1CNC(=O)CSc1nnc2c(Cl)cc(C(F)(F)F)cn12 | 1.74
O=S(=O)(N1CCCCC1)N1CCN(c2ccc(F)cc2)CC1 | -0.249
COc1ccc(C)cc1Nc1nc(-c2c(C)[nH]c3ccccc23)cs1 | -0.236
CCC(C)C(=O)Nc1nc(-c2ccc3c(c2)NC(=O)CO3)cs1 (configuration not stated) | -1.04
CCOc1cc(CNCCSc2nnnn2C)cc(Br)c1OCc1ccc(F)cc1 | 0.297
COc1ccc(CN(C(=S)Nc2ccccc2)C2CC(=O)N(c3ccccc3)C2=O)cc1 (configuration not stated) | -0.189
O=C(Nc1ccccc1)Nc1nnc(/C=C/c2ccccc2Cl)s1 | -0.529
Cc1ccc(CN2C(=O)CCC2C(=O)NCc2ccc3c(c2)OCO3)cc1 (configuration not stated) | -0.431
Cc1ccc(NC(=O)CN2C(=O)N/C(=C/c3ccc(N4CCOCC4)cc3)C2=O)cc1 | -0.234
CCOc1cc(C(=S)N2CCOCC2)ccc1OS(=O)(=O)c1ccccc1 | -0.19
COc1cc(SC)ccc1C(=O)NCCOc1ccc(Cl)cc1 | -0.243
CCOc1ccc(S(=O)(=O)N(C)c2ccc(OCC(=O)Nc3nc4ccccc4s3)cc2)cc1 | 0.214
CCn1nnnc1SCC(=O)N1c2ccccc2Sc2ccccc21 | -0.251
Cc1ccc(C(=O)c2cc3ccccc3o2)cc1 | -0.0424
CCCSc1nnc(CSc2nc3nc(C)cc(C)n3n2)o1 | 0.0497
COC(=O)C1C2C=CC(C3CC23)C1C(=O)OCC(=O)c1ccc(OC)cc1 (configuration not stated) | -0.246
OCCN(Cc1ccccc1)Cc1cccc(Cl)c1Cl | -0.371
COc1ccccc1NC(=O)N(c1c(N)n(Cc2ccccc2)c(=O)[nH]c1=O)C1CCCC1 | 0.151
O=C(NC(=S)Nc1ccc(Cl)cn1)c1cccs1 | active: 10.3
Nc1nc2sc3c(c2cc1C(=O)N1CCOCC1)CCCC3 | -0.115
O=c1c(/C=N/O)c(Nc2ccccc2)nc2ccccn12 | -0.38
COc1ccc(S(=O)(=O)N2CCCC(C(=O)Nc3ccc(OC)c(OC)c3)C2)cc1 (configuration not stated) | -0.503

SMILES | z-score
Cc1ccc(-c2nc(C#N)c(NCCN3CCCCC3)o2)cc1 | 1.04
Cc1cc(C(=O)Nc2ccc(N3CCOCC3)cc2)c2ccccc2n1 | -0.331
CCOC(=O)N1CCN(C(=O)CSc2nnc(-c3ccccc3OC)o2)CC1 | -0.875
CCCCNCCCCOc1ccccc1 | 0.142
COc1cccc(NC(=O)N[C@@H](Cc2ccccc2)C(=O)O)c1 | -0.415
Cc1ccccc1NC(=O)Cc1nnc(SCc2ccc(Cl)c(Cl)c2)n1C | -0.00483
CN1CCN(CC(=O)Nc2ccc(Oc3ccccc3)cc2)CC1 | 1.4
Nc1sc2c(c1C(=O)c1ccccc1)CCCC2 | -0.0368
Cn1c2c(c(=O)n(C)c1=O)C(NC(=O)c1cccs1)(C(F)(F)F)C(=O)N2 (configuration not stated) | 1.21
CC1CCCCN1CCNC(=O)c1cc2c(=O)n(C)c3ccccc3c2n1C (configuration not stated) | 1.88
COC(=O)c1[nH]c2cccc(C)c2c1NC(=O)CN1CCCc2ccccc21 | 0.325
CCOc1ccccc1NC(=O)c1ccoc1C | -0.211
CCCC(c1nnnn1C1CCCCC1)N1CCN(c2ncccn2)CC1 (configuration not stated) | -0.271
CCSc1nc2sc3c(c2c(=O)n1CC)CC(C)(C)OC3 | -1.33
Cc1ccccc1NC(=O)c1cccc(OCc2c(C)noc2C)c1 | -0.269
CCOC(=O)c1cccc(NC(=O)C2CCC(CNc3c(N4CCOCC4)c(=O)c3=O)CC2)c1 (configuration not stated) | 0.359
COc1cc(/C=C(\C#N)c2nc3ccc(C)cc3[nH]2)c([N+](=O)[O-])cc1OC | -0.78
COc1cccc(OCCCn2cc(/C=C3/C(=N)N4C=C(C)SC4=NC3=O)c3ccccc32)c1 | 0.00229
COc1ccccc1Nc1nc(-c2sc(NC(=O)c3ccco3)nc2C)cs1 | -0.263
COc1ccc(-c2ncc3ccccn23)cc1 | -0.361
COc1cc(C)c(CNc2ccc(OC)c(OC)c2)cc1C | -0.0341
C=C(C)CSc1nnc([C@H](CCSC)NC(=O)OC(C)(C)C)o1 | 0.0273
CCC1CCCCN1CCCNC(=O)CNC(=O)Cn1ccc2ccccc2c1=O (configuration not stated) | -0.263

SMILES | z-score
CCNC(=O)NC(=O)C(C)OC(=O)c1cccnc1SC (configuration not stated) | -0.0754
COC(=O)c1nn(-c2ccc(Cl)cc2)c(=O)cc1Sc1ccccn1 | 0.0537
CC(C)OCCCNC(=O)c1ccc(Br)cc1 | 0.954
CC(=O)C(Sc1ccc2nnc(-c3ccc(C)cc3)n2n1)C(C)=O | 1.78
COC(=O)c1ccc(NC(=O)C23CCC(C)(C(=O)O2)C3(C)C)cc1 (configuration not stated) | 2.35
NS(=O)(=O)c1ccc(NC(=S)N2CCN(c3ccccc3Cl)CC2)cc1 | 0.00418
CCC(C)NC(=O)CCCCCn1c(=O)[nH]c2cc(OC)c(OC)cc2c1=O (configuration not stated) | -1.26
CCS(=O)(=O)c1nc2ccccc2n1CC(=O)N1CCCCC1 | 0.849
CCCCOc1ccc(C(CC(=O)NC)C(=O)O)cc1 (configuration not stated) | 0.207
O=C(CCc1nc(-c2ccccc2)no1)N1CCCC1 | -0.208
CCOc1ccc(CN(C(=O)c2oc3cc(C)ccc3c2C)C2CCS(=O)(=O)C2)cc1 (configuration not stated) | -0.0359
Cc1ccc(C)c(SCC(=O)OCC(=O)Nc2ncc(C(F)(F)F)cc2Cl)c1 | -0.117
Cc1cc(C)cc(NC(=O)c2ccc(CSc3nnc(C)s3)cc2)c1 | -0.4
CC(C)CC(=O)NC(=S)NCCc1ccccc1 | 0.38
Cc1ccccc1CN1C(=O)Nc2ccccc2C(=O)N1C(C)(C)C | -0.18
CCCCCOP(=O)(OCCCCC)C1(NS(=O)(=O)c2ccccc2)C=CC(=O)c2ccccc21 (configuration not stated) | -0.189
CCCN1C(=O)C(Cc2nc3ccccc3c(=O)n2-c2ccccc2)c2ccccc21 (configuration not stated) | -1.6
CC(=O)CC(=O)NC(=NC1CCCCC1)Nc1nc(C)cc(C)n1 | -0.399
CC1CN(Cc2nc3c(c(=O)n(C)c(=O)n3C)n2CC(O)CO)CC(C)O1 (configuration not stated) | 0.278
COc1ccc(/C=N/NC(=O)c2cc(-c3ccc4c(c3)OCO4)n[nH]2)cc1OC | -0.211
CN(C(=O)CSC1=NCCS1)c1ccccc1 | 0.0673
O=C(COC(=O)CNS(=O)(=O)/C=C/c1ccccc1)NC1CCS(=O)(=O)C1 (configuration not stated) | 0.581
C=CCc1cccc(OC)c1OCCOCCn1ccnc1 | -0.0997

SMILES | z-score
O=S(=O)(NCCNS(=O)(=O)c1ccccc1)c1ccccc1 | 0.165
O=C(c1c(F)cccc1F)N1CCN(c2ccccc2F)CC1 | -0.129
Cc1nn(Cc2c(Cl)cccc2Cl)c(C)c1C(=O)NCc1ccc(C)n1C | 1.8
Cc1cc(NC(=O)CSc2ncnc3ccccc23)no1 | -0.281
CC(=O)NC(Cc1ccc(F)cc1)C(=O)O (configuration not stated) | -0.146
CCCCCC(=O)Nc1sc(C)c(C)c1C#N | 0.0905
O=S(=O)(c1ccccc1)N(Cc1ccccc1)c1ccccn1 | -1.1
O=C(O)c1ccc(SCc2cnc(Cl)s2)cc1 | 0.374
CCOC(=O)c1cc([N+](=O)[O-])sc1NC(=O)c1ccc(S(=O)(=O)N2CC3(C)CC2CC(C)(C)C3)cc1 (configuration not stated) | 0.0528
Cc1ccc(S(=O)(=O)Cc2ccc(C(=O)N3CCN(c4ccc(F)cc4)CC3)o2)cc1 | -0.278
Cc1ccc(/C(N)=N/OC(=O)CCC2CCCCC2)cc1 | 0.178
Cc1nn(CC(=O)Nc2ccc3c(c2)nc2n3CCOC2)c(=O)c2ccccc12 | -0.0988
COC(=O)c1ccc(COc2ccccc2/C=C(\C#N)C(=O)Nc2ccc(C)cc2)cc1 | -0.0714
COc1ccc(CNc2ncnc3cc(OC)c(OC)cc23)cc1 | -0.0976
O=C(CCc1ccc(S(=O)(=O)N2CCOCC2)cc1)NN=C1CCCCCCC1 | -0.592
O=C(c1cccc(S(=O)(=O)N2CCOCC2)c1)N(CCO)Cc1ccccc1 | -0.0818
COc1cc(N/C(=N/S(=O)(=O)c2ccccc2)c2ccccc2)ncn1 | 0.0664
COc1ccc(C(=O)NNC(=O)Cc2ccc([N+](=O)[O-])cc2)cc1 | -0.0669
O=C(Nc1nnc(-c2ccccc2)o1)c1cc(Cl)sc1Cl | active: 11.3
Cc1c(-c2ccccc2)[n+](=O)c2c(n1[O-])CCC2 | 0.748
O=C(CN1C(=O)/C(=C/c2ccccc2)SC1=S)Nc1ncc(Cc2ccccc2)s1 | -0.034
CCOc1ccc(-n2c(SCC(=O)Nc3cc(OC)c([N+](=O)[O-])cc3C)nc3ccccc32)cc1 | 0.119
CN(C)c1ccc(N=C/C=C2\N(C)c3ccccc3C2(C)C)cc1 | 0.852

SMILES | z-score
C=CCn1c(CNc2ccccc2)nnc1SCC(=O)N/N=C/c1ccc(O)cc1O | 0.0495
CN(C)CCCOC(=O)c1ccc(Cl)cc1Cl | 0.77
Cc1cc2ccccn2c1C(=O)c1nc(N2CCOCC2)ncc1Cl | -0.524
Cc1ccc(-c2nnc(SCC(=O)N3CCCC3)o2)cc1 | 0.23
COc1ccc(S(=O)(=O)Cc2ccc(C(=O)NCc3cccnc3)o2)cc1 | -0.0868
COc1cc2c(cc1O)C(SC)=NC(C)(C)C2 | -0.125
COc1cc(C(=O)NCc2ccc(-c3nc4ccccc4o3)cc2)cc(OC)c1OC | -0.0933
O=C(CO/N=C/c1ccc(OC(F)F)cc1)NCc1cccs1 | -0.349
Cc1ccsc1/C=N\NC(=O)c1n[nH]c2c1CCC2 | 1.75
COC(=O)c1sccc1NC(=O)c1ccc(OC)cc1 | 0.426
CC1Cc2ccccc2N1C(=O)COC(=O)Cn1nnc(-c2ccccc2)n1 (configuration not stated) | -0.414
COC(=O)c1sccc1NC(=S)N1CCN(c2ccccc2)CC1 | -0.397
Cc1cccc(C)c1NC(=O)C(=O)NCCCN1CCOCC1 | -0.137
COc1ccc(N(CC(=O)Nc2nccs2)S(=O)(=O)c2c(C)nn(C)c2C)cc1 | 0.0495
CCOc1ccccc1NS(=O)(=O)c1ccc(Br)s1 | 0.608
Cc1ccc(NC(=O)CSCC#N)cc1Cl | -0.0832
CC(C)NC(=O)C1CC(=O)N(C(C)c2ccccc2)C1 (configuration not stated) | -0.27
O=C(C1CCCN(Cc2cccc(F)c2)C1)N1CCCCC1 (configuration not stated) | 0.347
CCn1c(SCC(=O)c2cc(C)n(C)c2C)nnc1-c1ccccc1 | 0.0656
Cc1ccccc1NS(=O)(=O)c1ccc(OCC(=O)N2CCCCC2)cc1 | 0.204
